According to PubChem BioAssay AID1346428 (National Center for Advancing Translational Sciences (NCATS), 2018):
In all, about 48,000 compounds went through this assay and about 1,200 (2.5%) were called active. Another 2% or so got no clear call; they are omitted.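 Rule for the calls: active = activation of at least 60% and not above a set upper limit (about 1 call in 100 departs from these limits); inconclusive = activation of 40% to 60%, or above that upper limit; inactive = activation under 40%.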 Some of the results follow.

The compounds below were run against Probable G-protein coupled receptor 32 (Homo sapiens) (UniProt O75388) (assay: qHTS for Agonists of Human Resolvin D1 Receptor DRV1). Settings: CHO-K1 GPR32 beta-arrestin PathHunter luminescence, 90 min; at 76.9 µM; hits give high values; zero percent set by DMSO-only wells.
Chain of UniProt O75388 (O75388 whole entry, looked up, the tested form may be a part): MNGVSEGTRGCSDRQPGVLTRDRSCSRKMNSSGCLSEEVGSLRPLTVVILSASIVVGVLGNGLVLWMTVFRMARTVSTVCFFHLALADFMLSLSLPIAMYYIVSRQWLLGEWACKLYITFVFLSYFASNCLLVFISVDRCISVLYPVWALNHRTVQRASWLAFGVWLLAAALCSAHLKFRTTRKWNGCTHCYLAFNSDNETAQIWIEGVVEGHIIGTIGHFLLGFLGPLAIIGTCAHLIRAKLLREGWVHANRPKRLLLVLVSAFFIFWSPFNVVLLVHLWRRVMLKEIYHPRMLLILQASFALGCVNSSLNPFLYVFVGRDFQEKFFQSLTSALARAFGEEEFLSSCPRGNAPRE
How it was run: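 PathHunter enzyme-fragment complementation, CHO-K1 GPR32 stable line; 2,500 cells/well, overnight attach; cpd 90 min 37 °C 5% CO2; detection reagent 1 h RT; chemiluminescence. DMSO = EC0.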
Note: 0% is about no effect.

activation, active:
O=C(CSc1ncc(CO)n1Cc1ccccc1)Nc1ccc(C(F)(F)F)cc1 118%

activation, inactive:
COc1ccc(NC(=O)CSc2nc(O)c(C/C=C/c3ccccc3)c(=O)[nH]2)cc1 -4.57%, CSc1ccc(CCNC(=O)CCc2c(C)nc3cc(-c4ccccc4)nn3c2C)cc1 -3.69%, CCOc1ccc(/C=C/c2nc(C#N)c(Nc3ccc(OC)cc3)o2)cc1 -15.1%, CCCOc1ccc(CN(C(=O)c2nc(SC(C)C)ncc2Cl)C2CCS(=O)(=O)C2)cc1 (centres undefined) -16.3%, N#Cc1ccccc1Cn1c(=O)n(Cc2ccc(C(=O)NC3CCN(Cc4ccccc4)CC3)cc2)c(=O)c2ccccc21 -6.17%, O=C(Nc1c(C(=O)Nc2cccc(F)c2)oc2ccccc12)c1cc2ccccc2o1 1.49%, Fc1ccc(-c2ccc(CNCCSc3nnnn3-c3ccccc3)o2)cc1Cl 22.8%, COc1cc2[nH]c(=O)n(CCCCCC(=O)NCCc3ccccc3)c(=O)c2cc1OC 9.27%, CCNC(=O)c1ccc2nc(Cc3ccccc3)oc2c1 -3.64%, CCOC(=O)c1c(NC(=O)COc2cccc(C(F)(F)F)c2)sc2c1CCCCC2 -0.293%, CC(C)COc1ccc(C(=O)N2CCN(CCc3ccccn3)CC2)cc1 9.75%, COc1cccc(C2c3c(-c4ccccc4O)n[nH]c3C(=O)N2CCc2ccc(OC)c(OC)c2)c1 (centres undefined) -6.04%, O=C(Nc1nnc(S(=O)(=O)N2CCc3ccccc32)s1)c1ccccc1 43.6%, CCOc1nc(-c2ccc(C)cc2)ccc1-c1noc(-c2ccccc2F)n1 -2.91%, Cc1ccc(-c2nc3ccc(Cl)cn3c2Nc2ccc3c(c2)OCCO3)s1 6.49%, COc1ccc(CNC(=O)CN2C(=O)CCCc3ccccc32)cc1 -4.44%, CCN(CC)S(=O)(=O)c1ccc2oc(C(=O)Nc3ccc(Br)cc3F)c(C)c2c1 -2.7%, Cc1ccc(Sc2c(C(=O)NCc3ccccc3C)[nH]c3ccccc23)cc1 -7.44%, COc1cc(NC(=O)c2cnc3c(-c4ccc(F)cc4)c(C)nn3c2C)cc(OC)c1 -24.2%, CCc1ccc(-c2nc(-c3cc4ccccc4oc3=O)sc2C)cc1 -8.47%, CCn1c(C(=O)Nc2cc(Cl)ccc2C)cc2sc(Cl)cc21 -14.6%, CCOc1ccc(CCNC(=O)Cn2ncn3c(cc4ccccc43)c2=O)cc1OCC -4.58%, COc1ccc(NC(=O)CC(C)n2nc(C)cc2C)cc1Cl (centres undefined) -12.5%
